Results published in the supplement of paper PMC8291772.
± gives the standard error. The list shows a part of the results.

Molecular target: terminal deoxynucleotidyl transferase (calf thymus) (UniProt P06526)
Experiment: TdT poly-dT extension signal (Cy3 hybridisation fluorescence, uncapped minus capped) (fluorescence a.u.); higher = more efficient initiation of TdT extension
Details: initiator chemistry: 2'-O-methyl-RNA, free 3'-OH (5'-tethered via HEG linker)
Outline: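 Mono- to pentamer initiators were made by photolithographic in situ synthesis on glass on a hexaethylene glycol linker, each as uncapped and DMTr-dT-capped replicates. Arrays were extended with 0.2 u/μL calf thymus TdT and 100 μM dTTP in TdT buffer plus 0.25 mM CoCl2 at 37 °C for 120 min, hybridized with Cy3-labelled rA18 probe at 4 °C and scanned at 532 nm. Extension signal is mean uncapped minus mean capped (background) fluorescence.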

Sequence of UniProt P06526 (P06526 whole entry): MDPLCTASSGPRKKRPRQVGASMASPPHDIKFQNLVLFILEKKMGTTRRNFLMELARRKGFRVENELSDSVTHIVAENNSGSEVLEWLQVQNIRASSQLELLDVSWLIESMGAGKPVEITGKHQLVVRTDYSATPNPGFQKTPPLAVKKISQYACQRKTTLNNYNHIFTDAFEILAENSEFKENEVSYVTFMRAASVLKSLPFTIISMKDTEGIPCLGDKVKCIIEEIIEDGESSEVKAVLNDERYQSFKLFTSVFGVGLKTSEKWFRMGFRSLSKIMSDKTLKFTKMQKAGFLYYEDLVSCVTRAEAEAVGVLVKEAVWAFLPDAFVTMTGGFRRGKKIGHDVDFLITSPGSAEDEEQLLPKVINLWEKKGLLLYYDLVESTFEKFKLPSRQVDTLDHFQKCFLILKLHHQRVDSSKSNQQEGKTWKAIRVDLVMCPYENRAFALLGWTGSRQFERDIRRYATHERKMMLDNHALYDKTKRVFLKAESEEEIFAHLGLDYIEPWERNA

Sequence	TdT poly-dT extension signal
CCUA	528 ± 39
GAUGC	948 ± 49
GAUUA	366 ± 28
CUCGU	483 ± 44
UACCC	402 ± 50
GACCG	235 ± 18
UAGUU	301 ± 17
CAGCU	361 ± 26
CUUAC	422 ± 38
UCACG	290 ± 31
CUCGA	502 ± 48
UAUAG	326 ± 23
UUGGU	366 ± 24
UAUGU	312 ± 19
UCAGG	384 ± 36
UCGCG	302 ± 17
UCUC	456 ± 37
AGAGC	1140 ± 83
GGCU	351 ± 38
CGAG	465 ± 36
AUUCC	377 ± 21
GUACU	312 ± 20

Sequence	TdT poly-dT extension signal
CUGGC	1050 ± 57
CCUGU	408 ± 37
CCGUU	355 ± 61
AUCAU	449 ± 42
UCCAC	732 ± 54
GACCA	345 ± 31
AAUCC	457 ± 50
CGUCG	262 ± 33
ACCGC	1100 ± 130
GACAU	597 ± 84
GGUAC	494 ± 42
UAAUC	440 ± 29
ACUAC	413 ± 38
CCUUG	208 ± 20
CUAUG	217 ± 21
AACG	332 ± 49
AGUAU	328 ± 38
GUCAC	736 ± 91
AAACC	441 ± 32
AUCUG	236 ± 23
GGAAA	1010 ± 95
UGCCU	311 ± 27

Sequence	TdT poly-dT extension signal
CCCAC	818 ± 43
UAUU	267 ± 28
CGGUG	263 ± 29
GGGGA	632 ± 40
UGAAU	458 ± 37
CGCGA	521 ± 66
CGUAC	482 ± 33
GGGUA	515 ± 18
GAGU	518 ± 58
CACA	425 ± 22
CGGAG	465 ± 66
UCUAG	296 ± 18
CGCC	633 ± 69
ACCCG	218 ± 24
CCAAU	578 ± 47
CUUC	363 ± 30
AAUG	175 ± 23
AUUGG	176 ± 11
AUAAC	590 ± 41
AUCGU	432 ± 41
AUUA	347 ± 29
AUCAG	458 ± 47

Sequence	TdT poly-dT extension signal
CGUGC	1220 ± 81
GUAUU	234 ± 13
GCGUA	498 ± 32
GAGAC	862 ± 91
UUUAC	399 ± 22
AAUGA	403 ± 20
CUCAA	1050 ± 96
GCGU	492 ± 29
GUACG	337 ± 57
UACGA	548 ± 56
GGUUU	235 ± 14
GGUCG	185 ± 10
UGCGA	538 ± 49
UGCGG	324 ± 29
AAGUC	522 ± 33
AAUAG	440 ± 42
AAUA	536 ± 37
AGCAC	784 ± 48
UACGC	1190 ± 92
UCGUA	502 ± 30
UAGGC	1110 ± 68
CCUCG	256 ± 17

Sequence	TdT poly-dT extension signal
GUGGU	461 ± 28
CUAAC	634 ± 40
AACCG	293 ± 26
GUCUG	218 ± 15
AAAA	1010 ± 74
GUGUA	427 ± 58
GAGG	414 ± 37
CAAGC	1300 ± 67
CGAGG	359 ± 19
GUAGU	420 ± 54
UCGCU	401 ± 25
GUAGG	360 ± 30
CUGAA	834 ± 120
UGUCU	243 ± 37
AGAUU	308 ± 27
AAGG	383 ± 41
CGCCA	408 ± 65
AUUGU	280 ± 17
AUAG	369 ± 22
